Measured values taken from PubChem BioAssay AID1347165 (National Center for Advancing Translational Sciences (NCATS), 2019).
About 5,700 (2.6%) of roughly 220,000 compounds were called active. Inconclusive results, whose numbers are uncertain, are shown with a selection of clear calls. Calls come from the whole dose curve; as a rule, active = well fitted inhibition curve with a large enough effect; inconclusive = small, poorly fitted or top-dose-only effect; inactive = no such curve, though single readings can be large or run the other way. Potencies of inconclusive entries are doubtful fits and often do not repeat.
Note: nearly all actives have a fitted effect of over 70% in size.
Potency is the fitted concentration of half-maximal effect; tags give direction and shape of the fitted curve.
Throughout, for activity change, negative = inhibition: 0% is about no effect.

What follows are compounds tested against Lysine-specific demethylase 5B (Homo sapiens) (UniProt Q9UGL1) (assay: Primary screen for KDM5B Histone Demethylases FDH-coupled qHTS). Conditions: FDH-coupled NADH fluorescence (FDH is formaldehyde dehydrogenase); activity change, negative = inhibition: at 57.7 µM (top of the series) unless noted.
UniProt Q9UGL1, sequence (Q9UGL1 whole entry, looked up): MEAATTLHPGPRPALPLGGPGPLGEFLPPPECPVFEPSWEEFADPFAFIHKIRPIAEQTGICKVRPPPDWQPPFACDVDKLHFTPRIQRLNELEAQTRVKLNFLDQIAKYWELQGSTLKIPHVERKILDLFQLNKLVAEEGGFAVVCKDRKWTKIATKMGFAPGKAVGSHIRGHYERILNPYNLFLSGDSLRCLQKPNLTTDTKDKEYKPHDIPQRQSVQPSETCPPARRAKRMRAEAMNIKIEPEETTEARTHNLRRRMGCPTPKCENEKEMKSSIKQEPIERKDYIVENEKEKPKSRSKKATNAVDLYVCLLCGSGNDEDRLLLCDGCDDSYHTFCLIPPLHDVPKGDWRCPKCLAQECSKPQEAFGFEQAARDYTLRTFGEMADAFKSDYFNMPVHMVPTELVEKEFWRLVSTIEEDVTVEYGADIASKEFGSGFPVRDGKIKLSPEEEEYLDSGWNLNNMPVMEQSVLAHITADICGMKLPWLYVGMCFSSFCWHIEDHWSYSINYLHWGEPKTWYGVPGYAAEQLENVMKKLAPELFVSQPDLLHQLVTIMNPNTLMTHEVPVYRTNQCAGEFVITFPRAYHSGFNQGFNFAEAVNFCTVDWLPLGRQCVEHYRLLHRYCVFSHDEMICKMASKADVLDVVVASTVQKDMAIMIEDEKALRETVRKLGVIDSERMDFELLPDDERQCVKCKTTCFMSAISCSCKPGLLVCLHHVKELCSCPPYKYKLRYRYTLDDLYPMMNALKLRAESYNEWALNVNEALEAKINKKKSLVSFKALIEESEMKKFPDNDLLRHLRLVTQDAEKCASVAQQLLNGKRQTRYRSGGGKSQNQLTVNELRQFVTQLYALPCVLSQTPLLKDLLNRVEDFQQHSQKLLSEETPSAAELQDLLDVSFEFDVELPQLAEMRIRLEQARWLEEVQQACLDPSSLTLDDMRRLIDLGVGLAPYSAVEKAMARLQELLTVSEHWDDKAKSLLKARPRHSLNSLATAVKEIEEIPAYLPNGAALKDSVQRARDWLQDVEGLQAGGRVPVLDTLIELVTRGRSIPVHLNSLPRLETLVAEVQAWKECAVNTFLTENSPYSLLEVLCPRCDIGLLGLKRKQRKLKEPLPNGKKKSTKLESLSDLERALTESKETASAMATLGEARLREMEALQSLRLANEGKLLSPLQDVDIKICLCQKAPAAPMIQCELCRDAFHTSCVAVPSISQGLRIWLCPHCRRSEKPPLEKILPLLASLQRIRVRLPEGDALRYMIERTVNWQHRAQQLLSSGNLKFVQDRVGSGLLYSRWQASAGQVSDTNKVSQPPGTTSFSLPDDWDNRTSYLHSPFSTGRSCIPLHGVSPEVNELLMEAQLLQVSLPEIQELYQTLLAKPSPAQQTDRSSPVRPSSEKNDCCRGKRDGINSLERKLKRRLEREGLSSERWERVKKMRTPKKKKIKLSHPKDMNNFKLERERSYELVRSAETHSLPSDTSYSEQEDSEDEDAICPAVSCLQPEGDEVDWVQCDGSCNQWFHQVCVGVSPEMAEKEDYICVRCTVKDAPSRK
Procedure, shortened: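 qHTS format, multiple compound concentrations. Buffer 50 mM HEPES pH 7.5/0.01% Tween-20; 200 nM KDM5BΔAP final; 10 min compound preincubation; substrate-mix levels 12.5 µM peptide, 25 µM α-KG, 0.25 mM NAD⁺; 30 min RT; ΔRFU.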
With `O=C(N1CCCC1)N1CCN(C2CCNCC2)C(=O)C1` the Potency was active: 50.1 µM. For `CSc1ccc(CNC(=O)CCn2ccn3nc4c(c3c2=O)CCCC4)cc1`, the “activity change, negative = inhibition” value was inactive: 8.65%. `CCOc1ccc(S(=O)(=O)N2CCN(C(C(=O)O)c3c[nH]c4cc(F)ccc34)CC2)cc1` (stereo unspecified) was tested, and the “activity change, negative = inhibition” value was inactive: -14.5%. For `COc1ccccc1-c1n[nH]c2c1CC(=O)N(Cc1ccccc1)C2`, the Potency was inconclusive: 39.8 µM [inhibitor, partial curve, poor fit]. In the case of `COc1ccc(Cl)cc1-n1nc(C2CC2)nc1C(C)Cn1cncn1` (stereo unspecified), the Potency was inconclusive: 10 µM [inhibitor, partial curve, poor fit]. `CC(=O)NC1(C)CCN(Cc2ccc(-c3cccc(F)c3)cc2)C1` (stereo unspecified) was tested, and the Potency was inconclusive: 31.6 µM [inhibitor, single point]. For `O=C(NCCc1ccc(Cl)cc1)c1nc(-c2cccnc2)c2ccccn12`, the Potency was inconclusive: 14.1 µM [inhibitor, partial curve, poor fit]. `CN(c1cc(=O)c2ccnc(Nc3ccn(C)n3)c2o1)C1CCOCC1` was tested, and the Potency was inconclusive: 31.6 µM [inhibitor, partial curve, poor fit]. In the case of `Cc1ccc(-n2nc3c(N4CCC(C(=O)NCCc5ccccc5C)CC4)nnc(C)c3c2C)cc1`, the Potency was inconclusive: 31.6 µM [inhibitor, partial curve, poor fit]. In the case of `CN(CC1CCOCC1)C(=O)NCc1ccccc1`, the “activity change, negative = inhibition” value was inactive: 0.624%. `CCC(NC(C)=O)c1cccs1` (stereo unspecified) was tested, and the “activity change, negative = inhibition” value was inactive: -5.59%. With `COc1ccc(C(=O)N2CCN(c3cc(C(F)(F)F)ncn3)CC2)cc1F` the “activity change, negative = inhibition” value was inactive: -7.65%. In the case of `Nc1nccnc1C(=O)NCC1CCC1`, the Potency was inconclusive: 25.1 µM [inhibitor, partial curve, poor fit]. `O=C(/C=C/c1ccccc1[N+](=O)[O-])OCCCC(=O)c1ccc(Br)cc1` was tested, and the “activity change, negative = inhibition” value was inactive: 18.3%. With `Cc1cccc(-c2noc([C@@H]3Cc4nc[nH]c4CN3Cc3cccc(C#N)c3)n2)c1` the Potency was inconclusive: 31.6 µM [inhibitor, single point]. In the case of `CN(Cc1ccc(F)cc1F)C(=O)COc1ccc2ccc(=O)oc2c1`, the Potency was inconclusive: 28.2 µM [inhibitor, partial curve, poor fit]. `COc1ccc(CN2CCC3(CC(Cc4ccccc4)=NO3)C2)cc1` (stereo unspecified) was tested, and the Potency was active: 25.1 µM. `CC1Oc2ccc(NC(=O)c3ccc(F)cc3F)cc2CN(C2CCCc3ccccc32)C1=O` (stereo unspecified) was tested, and the Potency was inconclusive: 39.8 µM [inhibitor, single point]. For `Cc1cn2nc(C(=O)Nc3cc(F)cc(F)c3)cc2c(N(C)Cc2ccccc2)n1`, the Potency was active: 25.1 µM. For `Cc1cc(N2CCOCC2)nc(Nc2ccc(NC(=O)Nc3cccc(Cl)c3)cc2)n1`, the “activity change, negative = inhibition” value was inactive: -23.1%. For `Cn1cc(C(=O)NCCc2ccc(Cl)cc2)c(=O)c2cc(S(=O)(=O)N3CCCCC3)ccc21`, the activity change, negative = inhibition was inconclusive: -81.2% [inhibitor] [at 11.5 µM]. For `COc1cccc(CN2Cc3nc(-c4cc5ccccc5o4)ccc3OCC2=O)c1`, the Potency was active: 50.1 µM. For `COc1ccccc1CNC(=O)c1cnc2sc(N3CCOCC3)nn2c1=O`, the Potency was inconclusive: 14.1 µM [inhibitor, partial curve, poor fit]. With `COc1ccc(N2CCN(CC(O)COc3cc(C)ccc3C)CC2)cc1` (stereo unspecified) the Potency was inconclusive: 22.4 µM [inhibitor, partial curve, poor fit]. In the case of `COc1ccc(N2CCN(C(=O)Cn3nc(Cc4cccnc4)c4ccccc4c3=O)CC2)cc1`, the activity change, negative = inhibition was inconclusive: -34.5% [inhibitor]. In the case of `Fc1ccccc1-c1ccc(-c2nn3c(-c4ccco4)nnc3s2)o1`, the Potency was inconclusive: 31.6 µM [inhibitor, partial curve, poor fit]. `CCCn1c(-c2ccccc2)nc2c(=O)n(C)c(=O)[nH]c21` was tested, and the Potency was inconclusive: 8.91 µM [inhibitor, full curve, poor fit]. In the case of `NC(=O)c1ccc(CN(CC2CCOC2)C2CC2)cc1` (stereo unspecified), the “activity change, negative = inhibition” value was inactive: 13.7%. With `CC(=O)N1Cc2ccccc2OC2(CCN(C(=O)CCc3c[nH]c4ccccc34)CC2)C1` the Potency was inconclusive: 89.1 µM [inhibitor, partial curve, poor fit]. For `CCCCCCNc1nc2c(c(=O)[nH]c(=O)n2C)n1CC(O)COC(C)C` (stereo unspecified), the “activity change, negative = inhibition” value was inactive: 15.4%. `COc1cccc(-c2noc(NCc3cccc(Cl)c3)n2)c1OC` was tested, and the “activity change, negative = inhibition” value was inactive: -24.9%. `CCc1cccc(C)c1Nc1c(-c2cc(OC)c(O)c(OC)c2)nc2cnccn12` was tested, and the Potency was inconclusive: 25.1 µM [inhibitor, partial curve, poor fit]. With `CC(C)(C)c1cc(C(=O)OCC(=O)NC(c2ccccc2)c2ccccc2)cc(C(C)(C)C)c1` the “activity change, negative = inhibition” value was inactive: -5.04%. `COc1ccc(NC(=O)c2ccc3c(c2)N(C)C2CCCCN2C3=O)cc1F` (stereo unspecified) was tested, and the Potency was inconclusive: 28.2 µM [inhibitor, partial curve, poor fit]. `COc1cc(C(=O)Nc2cnc3ccccc3c2)ccc1OC(F)F` was tested, and the Potency was inconclusive: 25.1 µM [inhibitor, single point]. `Cc1ccc(NC(=O)N2CC(c3nnc(C(C)C)o3)C3(CCOCC3)C2)cc1` (stereo unspecified) was tested, and the “activity change, negative = inhibition” value was inactive: 10.8%. In the case of `Nc1nccnc1C(=O)NCC#Cc1ccccc1`, the Potency was inconclusive: 28.2 µM [inhibitor, partial curve, poor fit]. For `O=C1[C@@H]2C[C@@H](CN2C(=O)C2CCOCC2)Oc2ccccc2N1Cc1ccccn1`, the “activity change, negative = inhibition” value was inactive: -11.9% [at 86.2 µM]. In the case of `COC(=O)COc1nc(-c2ccco2)c2c(c1C#N)CCC2`, the Potency was inconclusive: 25.1 µM [inhibitor, partial curve, poor fit]. With `O=C(NCc1ccccc1)c1cc(NCc2cccnc2)ccn1` the Potency was inconclusive: 39.8 µM [inhibitor, single point]. For `COC[C@@H]1CN(c2cnccn2)C[C@H]1C(=O)NCc1ccccc1OC`, the Potency was active: 22.4 µM. With `O=C(NC1CCCCC1)N[C@H]1CCN2C(=O)c3cc(-c4ccsc4)ccc3NC(=O)[C@H]12` the “activity change, negative = inhibition” value was inactive: 14.1%. With `Cc1cccc(CNC(=O)c2sc3ncnc(N(C)C4CCCCC4)c3c2C)c1` the Potency was inconclusive: 35.5 µM [inhibitor, partial curve, poor fit]. With `CC(C)CCN1CC(CN[S+](=O)([O-])c2ccccc2)C2(C1)CN(c1ccccc1)C2` (stereo unspecified) the Potency was inconclusive: 28.2 µM [inhibitor, single point]. In the case of `Cc1nn(-c2ccccc2)c2nc(C3CC3)cc(C(=O)NCc3ccccc3Cl)c12`, the Potency was inconclusive: 31.6 µM [inhibitor, partial curve, poor fit]. `COc1ccc2c(c1)cc(C(=O)NCCOc1ccccc1)n2C` was tested, and the Potency was inconclusive: 28.2 µM [inhibitor, partial curve, poor fit]. With `CCN(CC)c1nc(-c2ccccc2Cl)c2cc(Br)ccc2n1` the Potency was inconclusive: 44.7 µM [inhibitor, single point]. With `Cc1cc(Cl)ccc1OCC(=O)N(Cc1ccc(N(C)C)cc1)CC1CCCO1` (stereo unspecified) the Potency was inconclusive: 10 µM [inhibitor, partial curve, poor fit]. With `COCCN1C(=O)c2cccn2CC1CNC(=O)NCc1ccc(C)cc1` (stereo unspecified) the “activity change, negative = inhibition” value was inactive: 10.5%. In the case of `CNc1nc(-c2c(C)n(C)c3ccc(OC)cc23)cs1`, the Potency was inconclusive: 20 µM [inhibitor, single point]. With `Cc1cc(C)cc(C(=O)Nc2nnc3n2CCS3)c1` the Potency was inconclusive: 31.6 µM [inhibitor, single point]. For `CCCCCN1C(C(=O)c2ccccc2)=C(NC(C)=O)c2ccccc2S1(=O)=O`, the Potency was inconclusive: 12.6 µM [inhibitor, partial curve, poor fit]. `CC(=O)c1cccc(NC(=O)c2c(C)nn(-c3ccc(F)cc3)c2-n2cccc2)c1` was tested, and the Potency was inconclusive: 14.1 µM [inhibitor, partial curve, poor fit]. With `Cc1cc2ccccc2n2c(SCC(=O)Nc3cccc(C(F)(F)F)c3)nnc12` the Potency was inconclusive: 31.6 µM [inhibitor, partial curve, poor fit]. With `CNc1oc(-c2ccc(COc3ccc(C)cc3)o2)nc1C#N` the Potency was inconclusive: 14.1 µM [inhibitor, partial curve, poor fit]. In the case of `CCOc1ccccc1NC(=O)c1cnc(N2CCOCC2)c2ccccc12`, the Potency was inconclusive: 25.1 µM [inhibitor, single point]. `COc1ccc(OCc2nc3c4c(-c5ccc(OC)cc5)c(-c5ccc(OC)cc5)oc4ncn3n2)cc1` was tested, and the Potency was inconclusive: 1.26 µM [inhibitor, full curve, poor fit]. In the case of `CCc1ccc2nc(/N=C(\N)NC(=O)c3ccccc3N)nc(C)c2c1`, the Potency was inconclusive: 14.1 µM [inhibitor, partial curve, poor fit]. In the case of `COc1cccc(CNc2nc3c(-c4cccc(C)c4)nnn3c3ccccc23)c1`, the Potency was inconclusive: 1.26 µM [inhibitor, full curve, poor fit]. `Cc1cccc(-n2nc(-c3c(C)nc4scc(CC(=O)N5CCCC5)n4c3=O)cc2C)c1` was tested, and the Potency was active: 28.2 µM. `COc1ncc(CN2CCc3c(n(Cc4cccnc4)n(-c4ccccc4)c3=O)C2)cn1` was tested, and the Potency was inconclusive: 44.7 µM [inhibitor, partial curve, poor fit]. `Cc1ccc(NC2CCCN(C(=O)CSc3ccccn3)C2)cc1C` (stereo unspecified) was tested, and the Potency was inconclusive: 39.8 µM [inhibitor, single point]. In the case of `Cc1cccc(-c2nc(C#N)c(NCc3ccccc3)o2)c1`, the Potency was inconclusive: 31.6 µM [inhibitor, partial curve, poor fit]. `COc1ccc(C(=O)N2CCN(c3nnc4c(Cl)cccn34)CC2)cc1` was tested, and the “activity change, negative = inhibition” value was inactive: -17.2%. `CCCOc1ccc(NC(=O)Cc2cccc3ccccc23)c2cccnc12` was tested, and the Potency was inconclusive: 1.78 µM [inhibitor, full curve, poor fit]. For `COc1ccccc1OCC(=O)Sc1ccc(Cl)cc1`, the Potency was inconclusive: 25.1 µM [inhibitor, partial curve, poor fit].
